Test results from article PMC7819943, “Rice protein-binding microarrays: a tool to detect cis-acting elements near promoter regions in rice”.
This is one part of the list.

Biological target: T1, OsWOX13 (Oryza sativa, UniProt Q5QMM3 1-267)
T1 sequence: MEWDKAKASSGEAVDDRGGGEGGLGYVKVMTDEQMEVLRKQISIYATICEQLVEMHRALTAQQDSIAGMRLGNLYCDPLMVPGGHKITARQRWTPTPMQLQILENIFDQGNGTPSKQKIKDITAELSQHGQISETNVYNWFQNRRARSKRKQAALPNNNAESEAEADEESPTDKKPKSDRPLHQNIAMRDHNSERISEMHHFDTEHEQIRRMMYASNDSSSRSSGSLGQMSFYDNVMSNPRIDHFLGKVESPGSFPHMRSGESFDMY
Assay: protein-binding microarray (RPBM); PBS, 2% BSA, 51.3 ng/ul salmon testes DNA, 50 uM zinc acetate, 200 nM TF, 25 C, 1 h; high values mean tight binding
Conditions: protein: recombinant; tags: N-terminal polyhistidine and DsRed monomer fusion (pET32a); label: CyDye5-dUTP incorporated in the synthesized complementary strand; 3' TTTTT single-stranded linker to array surface; dsDNA, one strand shown
In short: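 Binding signal is reported as fluorescence intensity per feature (arbitrary units) from an Axon 4000B scanner. Incubation used 200 nM of each Ni–NTA-purified, N-terminally polyhistidine- and DsRed-fused transcription factor from E. coli BL21-CodonPlus on a double-stranded custom Agilent array for 1 h at 25 °C, with 50 µM zinc acetate in the buffer, followed by washing.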

| Sequence | binding signal |
| --- | --- |
| ATGGTGTTGAGCTGTTGATTGATCAATAACTGAATTAGTTCGGAGTCACCTAGTGCAG | 33900 fluorescence intensity (a.u.) |
| ACTAAATTTACTGCTCAATTCTGAGCAATTTTGATCCTGTCGGAGTCACCTAGTGCAG | 23800 fluorescence intensity (a.u.) |
| CACCCTAATTAGCACCGGCGCTGCTAGTTATCTACTCTATCGGAGTCACCTAGTGCAG | 18900 fluorescence intensity (a.u.) |
| TAACAAAATAAATTACAGATTCCGCTAGGAAACTGCGAGACGGAGTCACCTAGTGCAG | 3900 fluorescence intensity (a.u.) |
| TAAAGATGTGACATTTAATTATTTGCTACCTATAATCTATCGGAGTCACCTAGTGCAG | 5190 fluorescence intensity (a.u.) |
| TAAGATTAAGCCATTAATTAGCCAAGCTAACTAAGCAAGCCGGAGTCACCTAGTGCAG | 17500 fluorescence intensity (a.u.) |
| CGGTGATTGATTTCAGATTTGAGTGGTTGATTACAACCTTCGGAGTCACCTAGTGCAG | 30200 fluorescence intensity (a.u.) |
| GTTTATAATTAGCATAGTAGTTTCTTGAGGCAGCCAGTGTCGGAGTCACCTAGTGCAG | 19000 fluorescence intensity (a.u.) |
| TCTCTTGACTGTGTAAAACAACTTCACGTGACAGCCTAGGCGGAGTCACCTAGTGCAG | 4080 fluorescence intensity (a.u.) |
| ACTAATTAACCACAAGTGCATGGGCTCTTAGTTGTCACCACGGAGTCACCTAGTGCAG | 20200 fluorescence intensity (a.u.) |
| TACACCTTAATTGCAAACTGGTTGATGCAAACCATAACAGCGGAGTCACCTAGTGCAG | 22700 fluorescence intensity (a.u.) |
| TCGGTTGATTTCTTGCAGAGATTAAGTAGCAGCAGGTGTTCGGAGTCACCTAGTGCAG | 6280 fluorescence intensity (a.u.) |
| AATTAATTTAGCCCCTAATTAATTAGCAGCCAATCAACGGCGGAGTCACCTAGTGCAG | 54000 fluorescence intensity (a.u.) |
| TATATATTAATGAATTTAGACATATATGTGTGTCTAGATTCGGAGTCACCTAGTGCAG | 5000 fluorescence intensity (a.u.) |
| ACTAGACAAAATTTCCTCTTAATGGGCTAATGGGCCTCCACGGAGTCACCTAGTGCAG | 6720 fluorescence intensity (a.u.) |
| CAGATTGGCAATCTCTCCTTCCTCTCCAGCCTTGTACTCACGGAGTCACCTAGTGCAG | 39300 fluorescence intensity (a.u.) |
| TCCAAATTACCAGAGAATTGGCGTAGACCATTTCTTCAAACGGAGTCACCTAGTGCAG | 8190 fluorescence intensity (a.u.) |
| GCCTTAATTGATTAACCGTGTAACATCTTCCTCACGCACCCGGAGTCACCTAGTGCAG | 65500 fluorescence intensity (a.u.) |
| GCTGATTCAGTAACTGTGACTCGCATGATGTAGTTCAGGACGGAGTCACCTAGTGCAG | 4240 fluorescence intensity (a.u.) |
| TTTAATGACTCGCAATAGACAACTCGAAGTCATATCGATACGGAGTCACCTAGTGCAG | 4830 fluorescence intensity (a.u.) |
| AACACAGGCTGATGAATGATGATTGAATGAACAGAGACAACGGAGTCACCTAGTGCAG | 22900 fluorescence intensity (a.u.) |
| GCCATTTGATTGGGAACTCCATCAAAACAATGACAAGAAGCGGAGTCACCTAGTGCAG | 25900 fluorescence intensity (a.u.) |
| TCATAATTAACTCTAACATTAAGATTTACAGAAAGTTAAACGGAGTCACCTAGTGCAG | 13900 fluorescence intensity (a.u.) |
